Experimental data reported in paper PMC4336329 (PLoS ONE, 2015).
The campaign covered roughly 310,000 compounds. About 2,200 (0.71%) showed an effect of 50% or more. The effect is printed as a negative number. This is one part of the list.

biological target: human ether-à-go-go-related gene (hERG) potassium channel (human, UniProt Q12809); assay: primary screen, population patch clamp on CHO cells stably expressing hERG
Sequence (Q12809 whole entry, looked up): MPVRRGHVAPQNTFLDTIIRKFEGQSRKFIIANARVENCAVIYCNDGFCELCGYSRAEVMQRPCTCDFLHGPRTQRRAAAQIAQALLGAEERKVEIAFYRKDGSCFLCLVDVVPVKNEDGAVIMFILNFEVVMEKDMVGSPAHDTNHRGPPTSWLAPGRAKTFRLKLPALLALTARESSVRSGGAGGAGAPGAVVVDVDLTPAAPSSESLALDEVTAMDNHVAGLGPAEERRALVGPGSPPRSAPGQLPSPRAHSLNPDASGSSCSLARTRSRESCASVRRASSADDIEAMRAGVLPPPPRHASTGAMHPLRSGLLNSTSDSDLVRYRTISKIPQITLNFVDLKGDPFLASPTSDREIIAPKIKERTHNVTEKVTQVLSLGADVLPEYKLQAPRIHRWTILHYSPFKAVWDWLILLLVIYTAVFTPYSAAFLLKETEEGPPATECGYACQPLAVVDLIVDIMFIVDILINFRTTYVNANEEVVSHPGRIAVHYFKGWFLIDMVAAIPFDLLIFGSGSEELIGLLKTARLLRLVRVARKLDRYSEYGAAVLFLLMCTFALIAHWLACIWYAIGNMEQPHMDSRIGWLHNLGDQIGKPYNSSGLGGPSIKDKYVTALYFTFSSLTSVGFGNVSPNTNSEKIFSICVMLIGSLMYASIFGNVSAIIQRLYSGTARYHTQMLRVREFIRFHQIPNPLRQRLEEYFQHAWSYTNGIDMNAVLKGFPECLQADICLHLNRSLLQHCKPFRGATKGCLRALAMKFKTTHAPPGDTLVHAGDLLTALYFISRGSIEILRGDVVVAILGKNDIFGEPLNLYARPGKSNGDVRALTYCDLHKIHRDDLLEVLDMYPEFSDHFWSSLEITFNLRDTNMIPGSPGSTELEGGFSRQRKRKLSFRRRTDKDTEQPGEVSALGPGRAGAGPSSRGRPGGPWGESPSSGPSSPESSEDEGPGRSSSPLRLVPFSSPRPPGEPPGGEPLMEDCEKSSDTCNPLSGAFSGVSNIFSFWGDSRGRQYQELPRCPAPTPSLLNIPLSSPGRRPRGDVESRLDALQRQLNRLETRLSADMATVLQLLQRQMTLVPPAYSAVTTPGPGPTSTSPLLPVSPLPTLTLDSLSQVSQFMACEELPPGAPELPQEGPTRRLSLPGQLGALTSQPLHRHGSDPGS

Going from `CCN(CC)S(=O)(=O)c1ccc(-c2nnc(SCc3nnc(-c4ccc(C)cc4)o3)n2CC)cc1` to `CCN(CC)S(=O)(=O)c1ccc(NC(=O)c2ccc(Sc3nncn3C)c([N+](=O)[O-])c2)cc1`, the “hERG current change (%, negative = inhibition) at 1uM” value falls from -0.991% to -1.23%.

First: Cc1ccsc1C(=O)OCC(=O)NCCC1=CCCCC1
Second: O=C(O)COc1ccc2c(c1)CCCC2
The “hERG current change (%, negative = inhibition) at 1uM” value of the first is higher: 17.8% for the first, 17.3% for the second.

First: O=C(CSc1nnc2scc(-c3ccc(F)cc3)n12)NCc1ccco1
Second: O=C(CNC(=O)c1ccc(F)cc1)NCc1ccccn1
The “hERG current change (%, negative = inhibition) at 1uM” value of the first is higher: 11.5% for the first, 1.31% for the second.

First: CC(=O)Nc1ccc(NC(=O)COC(=O)c2ccccc2SCC(=O)N2CCCC2)cc1
Second: O=C(CSc1nnc(Cn2c(=O)sc3ccccc32)n1CCc1ccccc1)N1CCCC1
The “hERG current change (%, negative = inhibition) at 1uM” value of the first is higher: 17.8% for the first, 5.76% for the second.

First: C/C(Cl)=C/Cn1c(SC(C)C)nc2c1c(=O)[nH]c(=O)n2C
Second: CC(C)NC(=O)NC(=O)CSc1nnc(COc2ccccc2Cl)o1
The “hERG current change (%, negative = inhibition) at 1uM” value of the first is higher: 6.96% for the first, -8.04% for the second.

Compared with `Cc1cc(=O)[nH]c(CN2CCOCC2)n1`, `Cc1ccccc1C(=O)NC1CCN(C(=O)N2CCOCC2)CC1` is higher in “hERG current change (%, negative = inhibition) at 1uM” value: 12% for the first, 12.6% for the second.

Compared with `O=S(=O)(NC1CC1)c1ccc(S(=O)(=O)N(Cc2ccccn2)C2CCCC2)cc1`, `O=C(Nc1cccn(Cc2cccc(F)c2)c1=O)NC1CCCCC1` is lower in “hERG current change (%, negative = inhibition) at 1uM” value: 10.1% for the first, 6.79% for the second.

First: O=C(/C=C/C=C/c1ccccc1)c1ccco1
Second: CN1C(=O)/C(=C\c2ccc(OC(=O)c3ccco3)cc2)SC1=S
The “hERG current change (%, negative = inhibition) at 1uM” value of the first is lower: 10% for the first, 23% for the second.

Compared with `CC1(C)O[C@@H]2[C@H](O1)[C@@H](COS(=O)(=O)[O-])O[C@H]2n1cnc2c(=O)[nH]cnc21.[K+]`, `CC1(C(=O)NC2CCCCCC2)CCC(=O)N1Cc1ccc2c(c1)OCO2` (stereo not shown) is lower in “hERG current change (%, negative = inhibition) at 1uM” value: 13.7% for the first, 0.95% for the second.

Going from `CS(=O)(=O)c1ccc(C(=O)Nc2cc(-c3ccccc3)nn2-c2ccccc2)cc1` to `CC1=NN(c2ccccc2)C(=O)/C1=C\N(O)c1ccccc1`, the “hERG current change (%, negative = inhibition) at 1uM” value rises from 9.34% to 13.6%.

Compared with `Cn1nccc1C(=O)N1CCN(c2ncccn2)CC1`, `O=C(c1cc(=O)c2ccccc2o1)N1CCN(c2ccccc2)CC1` is lower in “hERG current change (%, negative = inhibition) at 1uM” value: 9.95% for the first, 7.36% for the second.

Going from `CCc1ccc(NS(=O)(=O)c2cc3c(cc2C)n(C)c(=O)c(=O)n3C)cc1` to `CCN(CC)S(=O)(=O)c1ccc(C)c(NCC(=O)Nc2ccc(C#N)c(Cl)c2)c1`, the “hERG current change (%, negative = inhibition) at 1uM” value falls from 1.44% to 0.676%.

Going from `CN(N)c1nc(N2CCCC2)nc(N2CCCC2)n1` to `c1ccc2oc(-c3ccc(Nc4nc(N5CCCC5)nc(N5CCOCC5)n4)cc3)nc2c1`, the “hERG current change (%, negative = inhibition) at 1uM” value rises from 3.96% to 6.82%.

Compared with `COc1ccc(Cc2nnc(NC(=O)c3c(-c4ccccc4)noc3C)s2)cc1OC`, `COc1cc(C(=O)Nc2nc3ccc(C)cc3s2)ccc1OCc1c(C)noc1C` is higher in “hERG current change (%, negative = inhibition) at 1uM” value: -0.959% for the first, 12.6% for the second.

First: CC(NC(=O)C1=CC=CN2CCS(=O)(=O)N=C12)c1ccc(Cl)cc1Cl (stereo not shown)
Second: CCn1c(SCC(=O)N2CCN(c3ccc(Cl)cc3)CC2)nc2ccccc2c1=O
The “hERG current change (%, negative = inhibition) at 1uM” value of the first is lower: -3.23% for the first, 7.22% for the second.

Compared with `CCCOc1cccc(CN2CCCCC2c2cccnc2)c1.Cl` (stereo not shown), `COc1cccc(CNC(=O)CCC2CCCN(C(=O)c3ccc(C)nc3)C2)c1` (stereo not shown) is lower in “hERG current change (%, negative = inhibition) at 1uM” value: 10.5% for the first, 6.84% for the second.

First: COc1ccccc1/C=C(\C#N)C(=O)c1cccn1C
Second: COc1cccc(C(=O)NCc2ccccc2OC)c1
The “hERG current change (%, negative = inhibition) at 1uM” value of the first is higher: 7.6% for the first, 7.18% for the second.

Compared with `O=C(NC(=S)NC1CCCCC1)c1ccccc1[N+](=O)[O-]`, `O=C(NCCc1nnc2ccccn12)c1cccs1` is lower in “hERG current change (%, negative = inhibition) at 1uM” value: 18.9% for the first, 8.58% for the second.

Compared with `C=CCN(CC=C)C(=O)CN1C(=O)NC(c2ccccc2)(c2ccccc2)C1=O`, `O=C(O)Cn1c(SCc2ccccc2)nc2ccccc21` is lower in “hERG current change (%, negative = inhibition) at 1uM” value: 6.96% for the first, 4.11% for the second.

First: COc1cc(-c2cc(C(=O)NCc3ccco3)c3ccccc3n2)cc(OC)c1OC
Second: COc1cc(C(=O)N=c2sc3ccccc3n2C)cc(OC)c1OC
The “hERG current change (%, negative = inhibition) at 1uM” value of the first is lower: 6.92% for the first, 14.8% for the second.

Going from `CN1CCN(C(c2cccc(C(F)(F)F)c2)c2nnnn2Cc2ccccc2)CC1` (stereo not shown) to `O=C(CSc1nc(Nc2ccccc2)nc(N2CCOCC2)n1)Nc1ccccc1Cl`, the “hERG current change (%, negative = inhibition) at 1uM” value falls from 5.03% to 2.86%.

Going from `CC(C(=O)NCc1ccc(F)cc1)c1ccc([N+](=O)[O-])cc1` (stereo not shown) to `COc1ccc(CC(=O)NCC2CCCN(Cc3ccc(F)cc3F)C2)cc1` (stereo not shown), the “hERG current change (%, negative = inhibition) at 1uM” value rises from -5.52% to 8.71%.

First: COc1ccc(NC(=O)c2ccc(NS(=O)(=O)c3cccc4cccnc34)cc2)cc1
Second: CC(=O)N1CCOc2ccc(S(=O)(=O)N3CCC(C(=O)Nc4ccc(F)cc4)CC3)cc21
The “hERG current change (%, negative = inhibition) at 1uM” value of the first is lower: 6.15% for the first, 7.88% for the second.

Going from `C#CCOCCOCCOCCNc1nc(N2CCN(C(=O)CCCCCCCCCCNC(=O)Cn3cc(C[C@@H](C)O)nn3)CC2)nc(N2CCN(C(=O)CCCCCCCCCCNC(=O)Cn3cc(C[C@@H](C)O)nn3)CC2)n1` to `COCCOC(=O)c1c(NC(=O)CN2CCc3ccccc32)sc(C(N)=O)c1C`, the “hERG current change (%, negative = inhibition) at 1uM” value falls from 9.21% to 7.34%.

First: CCc1ccc(-c2nc(CN3CCC(C(=O)NCc4ccccc4OC)CC3)c(C)o2)cc1
Second: CCOC(=O)c1nnn(-c2nonc2N)c1CN(CC)c1ccccc1
The “hERG current change (%, negative = inhibition) at 1uM” value of the first is lower: -13.1% for the first, 6.79% for the second.

Going from `CC(=O)c1c(C)nc2ccccn12` to `CC(C)CN(CCNC(=O)CC1Oc2ccccc2NC1=O)CC(C)C` (stereo not shown), the “hERG current change (%, negative = inhibition) at 1uM” value falls from 4.91% to 2.25%.

Going from `CCCCN1CN(Cc2ccco2)CNC1=S` to `CCN(CC)C(=O)C1=C(C)NC(=S)NC1c1cccs1` (stereo not shown), the “hERG current change (%, negative = inhibition) at 1uM” value rises from 9.96% to 13.7%.

With `COC(=O)c1ccc2c(c1)NC(=O)C(N1CCCC1)S2` (stereo not shown) the “hERG current change (%, negative = inhibition) at 1uM” value was -0.145%.
